According to PubChem BioAssay AID662 (National Center for Advancing Translational Sciences (NCATS), 2007):
In all, about 71,000 compounds went through this assay and about 1,800 (2.5%) were called active. The inconclusive results got no clear call from the source; some entries with a clear call stand among them for comparison. Calls follow the shape of the dose curve; as a rule, active = well fitted activation curve with a large enough effect in the signal ratio, with a control signal flat (not every such curve was filed as active); inconclusive = small, poorly fitted or top-dose-only effect, or effect the other way, or a change in a side signal; inactive = flat fitted curve, though single readings scatter; the % refers to the signal ratio. A potency beside an inconclusive call is a rough fit, not a confirmed value.

Test: Cell signaling CRE-BLA (Fsk stim); as to activity change, negative = inhibition: % of control where 0% means no effect
Conditions: CHO CRE-bla reporter (cAMP response element driving beta-lactamase), forskolin EC10, beta-lactamase ratio; activity change, negative = inhibition: at 38.2 µM (top of the series) unless noted
How it was run: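 Titrated compounds plus EC10 NKH 477 on CHO CRE-bla cells, 3 h, 37 °C. CCF4, 2 h RT. Ratio 460/530 nm → AC50.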
Potency is read from the fitted curve at half-maximal effect; tags tell the direction and shape of the fitted curve.

Row | Structure (SMILES) | Potency | activity change, negative = inhibition
1 | CCNc1ncc2nc(-c3cn(C)c4ccccc34)c(=O)n(Cc3cccs3)c2n1 | inconclusive: 3.16 µM [rising, partial curve] | –
2 | COc1cccc(Cn2c(=O)cnc3cnc(Oc4ccccc4)nc32)c1 | – | inactive
3 | CCOC(=O)c1[nH]c(C)c(/C(O)=C2\C(=O)C(=O)N(CCCN3CCOCC3)C2c2cccnc2)c1C (centres undefined) | – | inconclusive: 12%
4 | O=C(C1CCCN1S(=O)(=O)c1ccc(Cl)c(Cl)c1)N1CCCCC1 (centres undefined) | – | inconclusive: 8.55%
5 | CCCOc1ccc(OC(=O)c2ccc(Br)o2)cc1 | – | inconclusive: 3.51%
6 | Cc1cccc(N(C)S(=O)(=O)c2ccc3[nH]cc(C(=O)N4CCOCC4)c(=O)c3c2)c1 | – | inactive
7 | CCOC(=O)CSc1nnc(CNC(=O)Cc2ccccc2)n1C | – | inconclusive: 13.5%
8 | CC(C)c1ccc(NC(=O)C2CC(=O)N=C(N)S2)cc1 (centres undefined) | – | inactive
9 | c1ccc(Nc2nc3ccccc3n3cnnc23)cc1 | inconclusive: 10 µM [rising, single point] | –
10 | O=C(c1cn(-c2ccccc2)nc1-c1cccs1)N1CCN(c2ccccn2)CC1 | – | inactive
11 | COc1ccccc1NC(=O)Nn1cnnc1 | – | inconclusive: 13.5%
12 | Cc1ccc(N2CC(C(=O)N3CCCc4ccccc43)CC2=O)cc1 (centres undefined) | – | inactive
13 | CCc1ccc(NC(=O)CSc2nnc(-c3cnccn3)n2Cc2ccco2)cc1 | – | inconclusive: -9.41%
14 | COC(=O)c1cccc(NC(=O)NC2CCCN2S(=O)(=O)c2ccc(Cl)cc2)c1 (centres undefined) | inconclusive: 20 µM [falling, single point] | –
15 | Cc1cccc(S(=O)(=O)C(C#N)c2nc3ccccc3nc2N2CC(C)OC(C)C2)c1 (centres undefined) | – | inconclusive: -16.7% [fluorescent]
16 | Cc1ccc(S(=O)(=O)N2CCCN(S(=O)(=O)c3ccc(C)cc3)CC2)cc1 | – | inconclusive: -0.976%
17 | CCCCCCC(=O)N(O)C1CC(=O)N(c2ccccc2)C1=O (centres undefined) | – | inconclusive: -15%
18 | CCOc1ccc(C2C(C(=O)c3ccco3)=C(O)C(=O)N2Cc2cccnc2)cc1OC (centres undefined) | – | inconclusive: 10.3% [cytotoxic]
19 | COc1cccc(Cn2c(=O)c(-c3cn(C)c4ccccc34)nc3cnc(N4CCNCC4)nc32)c1 | inconclusive: 1.26 µM [rising, partial curve] | –
20 | Nc1ncnc2c1cnn2-c1ccccc1 | – | inactive
21 | COc1ccc(NC(=O)[C@@H]2[C@@H]3C(=O)N(C4CCCCC4)C(=O)[C@@H]3C3c4ccccc4C=CN32)cc1 (some centres undefined) | inconclusive: 7.94 µM [falling, partial curve] | –
22 | CCOC(=O)c1nc2sc3c(c2c(=O)[nH]1)CCCC3 | – | inactive
23 | Cc1cc2c(nn1)CCc1nonc1-2 | inconclusive: 5.01 µM [falling, single point] | –
24 | Cn1nc(C(=O)Nc2c(-c3ccccc3)nc3sccn23)c2ccccc2c1=O | inconclusive: 3.16 µM [rising, single point] | –
25 | C=CCn1c2ccccc2c2nnc(SCCCn3c(=O)[nH]c4ccccc43)nc21 | active: 1.26 µM | –
26 | COc1cccc(CNC(=O)C2CCN(C(=O)N(C)C)CC2)c1 | – | inconclusive: 13.3%
27 | CCOC(=O)Cc1csc(NC(=O)CSc2nnc(-n3nc(C)cc3C)c3ccccc23)n1 | – | inactive

Row | Structure (SMILES) | Potency | activity change, negative = inhibition
28 | Cc1nc2cnc(Oc3cccc(Cl)c3)nc2n(C2CC2)c1=O | – | inconclusive: 20%
29 | COc1cccc(-c2nn(C)c3sc(C(=O)N4CCN(c5ccccc5)CC4)cc23)c1 | active: 2.51 µM | –
30 | Nc1cc(N)nc(SCc2cc(=O)oc3cc4c(cc23)CCC4)n1 | inconclusive: 5.01 µM [rising, full curve, poor fit] | –
31 | Cc1ccc2c(COC(=O)c3n[nH]c4ccccc34)cc(=O)oc2c1 | inconclusive: 10 µM [rising, single point] | –
32 | CN1C[C@H](C(=O)N[C@]2(C)O[C@@]3(O)[C@H]4CCCN4C(=O)[C@H](Cc4ccccc4)N3C2=O)C[C@H]2c3cccc4[nH]cc(c34)C[C@@H]21 | inconclusive: 2 µM [falling, full curve] | –
33 | Cc1nn(CCc2nn[nH]n2)c2nc(C(F)(F)F)cc(C(F)(F)F)c12 | inconclusive: 10 µM [rising, partial curve] | –
34 | CSc1ccc(-c2nnn(CC(=O)NCc3ccccc3)n2)cc1 | – | inactive
35 | COc1cc2cc(CN(CCN3CCCC3)C(=O)Nc3ccc(F)cc3)c(=O)[nH]c2cc1OC | – | inactive
36 | Cc1ccc2[nH]c(=O)c3cc(C(=O)NCCN4CCN(C)CC4)sc3c2c1 | – | inactive
37 | CCC1(C)Cc2c(sc3nc(NC)n(C)c(=O)c23)CO1 (centres undefined) | inconclusive: 12.6 µM [rising, single point] | –
38 | COc1ccc2nc(N3CCCC3)c(C#N)cc2c1 | inconclusive: 12.6 µM [rising, partial curve] | –
39 | CCOC(=O)CSc1nc(N)nc(C)c1Br | inconclusive: 0.0158 µM [falling, full curve, poor fit] | –
40 | CCC(C)COC(=O)C(C#N)c1nc2ccccc2nc1N1CCCCC1 (centres undefined) | – | inconclusive: 2.91%
41 | O=C(CN1CCN(C(=O)c2ccccc2)CC1)Nc1ccc(Br)cn1 | – | inactive
42 | S=C(c1ccc(N2CCOCC2)cc1)N1CCOCC1 | – | inactive
43 | O=C(O)c1cc(S(=O)(=O)Nc2ccc3oc(=O)sc3c2)ccc1O | – | inconclusive: 13.9%
44 | Cc1ccc(C2CC(c3cccc(Br)c3)Nc3nnnn32)cc1 (centres undefined) | – | inactive
45 | COc1ccc(S(=O)(=O)N2CCN(CCO)CC2)cc1-c1nnc2c3ccccc3c(C)nn12 | inconclusive: 12.6 µM [rising, single point] | –
46 | CCc1ccc(C2=Nn3c(nnc3-c3cccs3)SC2)cc1 | – | inconclusive: 28%
47 | COc1cc(OC)cc(C(=O)N(Cc2nc(-c3cccc(C)c3)no2)C(C)C)c1 | – | inactive
48 | COc1cc(CC(=O)Nc2nccs2)cc(OC)c1OC | inconclusive: 0.1 µM [falling, single point] | –
49 | Cc1ccc(C(O)c2nccn2C)o1 (centres undefined) | – | inconclusive: -6.95%
50 | CN[C@@H]1[C@H](O[C@@H]2O[C@H](CO)[C@@H](N)[C@H](O)[C@@H]2O)O[C@H]2C[C@@H](N)[C@@H](O[C@H]3[C@@H](O)[C@H](O)[C@H](N)C[C@@H]3N)O[C@H]2[C@H]1O | – | inactive
51 | O=S(=O)(c1ccccc1)N1CCC[C@@]2(CCN(c3cccc(-c4ccccc4)c3)C2)C1 | – | inactive
52 | O=C(CN(CC1CCCO1)C(=O)CCC(=O)Nc1ccccn1)NCC1CCCO1 (centres undefined) | – | inactive
53 | O=C(NCc1ccco1)c1c2c(nc3ccccc13)CCC2 | – | inconclusive: -8.87%
54 | COC(=O)c1ccc(CSc2ncn[nH]2)o1 | inconclusive: 3.16 µM [rising, single point] | –

Row | Structure (SMILES) | Potency | activity change, negative = inhibition
55 | CCNc1ncc2nc(CCc3ccccc3)c(=O)n(CCOC)c2n1 | inconclusive: 12.6 µM [rising, partial curve] | –
56 | COc1cc(-c2nnc(SCC#CCO)o2)cc(OC)c1OC | inconclusive: 12.6 µM [rising, partial curve] | –
57 | CCC(=O)O[C@@]1(C(=O)CCl)[C@@H](C)C[C@@H]2[C@H]3CCC4=CC(=O)C=C[C@@]4(C)[C@]3(F)[C@@H](O)C[C@@]21C | – | inactive
58 | CC[C@](N)(C(=O)O)C(C)C | – | inactive: 6.25% [at 7.6 µM]
59 | CCN(c1ccccc1)c1nc2ccsc2c(=O)s1 | inconclusive: 12.6 µM [rising, partial curve] | –
60 | CC(=O)Nc1ccc(S(=O)(=O)N2CCC(n3cnc4cc(F)ccc43)CC2)cc1 | – | inactive
61 | CC(=O)[C@]1(O)CC[C@@H]2[C@H]3C[C@@H](C)C4=CC(=O)CC[C@@]4(C)[C@H]3[C@@H](O)C[C@]21C | – | inactive: 3.95% [at 7.6 µM]
62 | O=c1c2[nH]c3ccc(F)cc3c2ncn1CCCN1CCOCC1 | – | inconclusive: 16.1%
63 | CC(=O)Nc1ccc(S(=O)(=O)NCc2ccc(C(=O)NCc3ccc4c(c3)OCO4)cc2)cc1 | – | inconclusive: -25.5%
64 | CCOC(=O)C1CCN(C(C(=O)Nc2ccc3c(c2)OCCO3)c2ccccc2)CC1 (centres undefined) | – | inactive
65 | Cc1ccc(N(CC(=O)Nc2cccc(C)c2)S(=O)(=O)c2cccc3nonc23)cc1 | – | inconclusive: -13.8%
66 | CC(C)c1ccc(-c2nnn(CCC(=O)O)n2)cc1 | – | inactive
67 | CC(=O)c1sc(NC(=O)C2COc3ccccc3O2)nc1C (centres undefined) | inconclusive: 12.6 µM [rising, partial curve] | –
68 | CN(C)C(=O)c1ccc(-c2cncnc2NCc2ccccc2)cc1 | – | inactive
69 | Cc1onc(-c2ccccc2)c1C(=O)Nc1nc(-c2ccc(F)c(F)c2)cs1 | inconclusive: 2 µM [rising, full curve, poor fit] | –
70 | Cn1c(=O)c2c(ncn2C)n(C)c1=O | inconclusive: 25.1 µM [rising, single point] | –
71 | COc1ccccc1Nc1nc(N)nc(CN2CCN(c3ccccc3F)CC2)n1 | – | inconclusive: -18.4%
72 | CC(C)=CCCC(C)N(C=O)C(C)CCC=C(C)C (centres undefined) | – | inactive
73 | CC1CCN(c2ccc(C(=O)O)cc2N)CC1 | – | inactive
74 | CCOc1cc(-c2c(C)c(C)nc(N)c2C#N)ccc1O | inconclusive: 10 µM [rising, partial curve] | –
75 | O=C1CCc2c(ccc3ccccc23)O1 | – | inactive
76 | CCCN(Cc1cc2cc(C)ccc2[nH]c1=O)S(C)(=O)=O | – | inconclusive: -13.7%
77 | O=C(O)[C@H]1CCc2ccc3ccccc3c2[C@H]1c1cccc2ccccc12 | – | inactive: 1.46% [at 7.6 µM]
78 | Cn1c(=O)c2c(SCC(=O)N3CCCc4ccccc43)nc(C3CC3)nc2n(C)c1=O | – | inconclusive: 14.3%
79 | O=C(O)CC(Cc1ccccc1)c1ccc2c(c1)OCO2 (centres undefined) | inconclusive: 0.316 µM [rising, full curve, poor fit] | –
